Some of the results follow. Cut-off read from the data, not from the text of the source: active = 3.2 or more and inactive = the rest. The signal is at background level for most entries.
The binders below were run against SHP2 C-SH2 domain E139D (assay: enrichment score (SH2-bound / input frequency) (ratio); bacterial display of known human phosphotyrosine sites (pTyr-Var adds point mutants) read by sequencing; higher = stronger binding; tyrosines were phosphorylated by kinases first). Settings: peptide library: pTyr-Var.
For FSQNICIQNRN [PKP2_Y631_Y631C_YF], the enrichment score was inactive: 0.933.
YTHSDYQYSQR [PKP2_Y166] was tested, and the enrichment score was inactive: 0.627.
For SGDINYGQFAQ [PLCG1_Y210_T209N], the enrichment score was inactive: 0.645.
With FSQNIYIQNRN [PKP2_Y631_YF] the enrichment score was inactive: 1.72.
With LHNLSYQLEAE [PKP2_Y616] the enrichment score was inactive: 1.49.
For YSQNIYIQNRN [PKP2_Y631], the enrichment score was inactive: 1.12.
For YSQNICIQNRN [PKP2_Y631_Y631C], the enrichment score was inactive: 0.571.
For ELPEKYSQNIY [PKP2_Y626], the enrichment score was inactive: 0.699.
For SEPDLYCDPRG [PKP1_Y160], the enrichment score was inactive: 0.748.
In the case of GPGSGYTNIMR [PKLR_Y564_R559G], the enrichment score is reported as inactive: 1.15.
In the case of ELPEKYSQNIF [PKP2_Y626_YF], the enrichment score is reported as inactive: 0.911.
For FMRGMYFRMKD [PLA2G6_Y541_YF], the enrichment score was inactive: 0.885.
In the case of RNLDTYQKRLR [PLA2G2D_Y126], the enrichment score is reported as inactive: 0.743.
With SIYKDYYRYNF [PLA2G2D_Y85] the enrichment score was inactive: 1.55.
SIFKDYFRFNF [PLA2G2D_Y85_YF] was tested, and the enrichment score was inactive: 2.99.
With GIYKDYYRYNF [PLA2G2D_Y85_S80G] the enrichment score was inactive: 1.09.
For DASAVYLHDFQ [PLCG2_Y242], the enrichment score was inactive: 1.25.
In the case of RHFSSYSQMEN [PKP1_Y120_R116H], the enrichment score is reported as inactive: 1.03.
In the case of RRFSSYSQMEN [PKP1_Y120], the enrichment score is reported as inactive: 0.23.

What follows are binders tested against SHP2 C-SH2 domain wild-type in the same assay as above. Settings: peptide library: pTyr-Var.
In the case of FSQNICIQNRN [PKP2_Y631_Y631C_YF], the enrichment score is reported as inactive: 0.643.
In the case of YTHSDYQYSQR [PKP2_Y166], the enrichment score is reported as inactive: 0.484.
For SGDINYGQFAQ [PLCG1_Y210_T209N], the enrichment score was inactive: 0.718.
In the case of FSQNIYIQNRN [PKP2_Y631_YF], the enrichment score is reported as inactive: 1.75.
In the case of LHNLSYQLEAE [PKP2_Y616], the enrichment score is reported as inactive: 1.27.
YSQNIYIQNRN [PKP2_Y631] was tested, and the enrichment score was inactive: 1.11.
For YSQNICIQNRN [PKP2_Y631_Y631C], the enrichment score was inactive: 0.828.
ELPEKYSQNIY [PKP2_Y626] was tested, and the enrichment score was inactive: 0.583.
For SEPDLYCDPRG [PKP1_Y160], the enrichment score was inactive: 0.587.
With GPGSGYTNIMR [PKLR_Y564_R559G] the enrichment score was inactive: 1.97.
For ELPEKYSQNIF [PKP2_Y626_YF], the enrichment score was inactive: 0.684.
FMRGMYFRMKD [PLA2G6_Y541_YF] was tested, and the enrichment score was inactive: 0.626.
With RNLDTYQKRLR [PLA2G2D_Y126] the enrichment score was inactive: 0.344.
In the case of SIYKDYYRYNF [PLA2G2D_Y85], the enrichment score is reported as inactive: 1.66.
For SIFKDYFRFNF [PLA2G2D_Y85_YF], the enrichment score was inactive: 2.25.
With GIYKDYYRYNF [PLA2G2D_Y85_S80G] the enrichment score was inactive: 1.34.
With DASAVYLHDFQ [PLCG2_Y242] the enrichment score was inactive: 1.03.
RHFSSYSQMEN [PKP1_Y120_R116H] was tested, and the enrichment score was inactive: 0.93.
With RRFSSYSQMEN [PKP1_Y120] the enrichment score was inactive: 0.242.

Each binder was assayed against SHP2 N-SH2 domain L43F in the same assay as above. Settings: peptide library: pTyr-Var.
With FSQNICIQNRN [PKP2_Y631_Y631C_YF] the enrichment score was inactive: 0.788.
For YTHSDYQYSQR [PKP2_Y166], the enrichment score was inactive: 0.593.
With SGDINYGQFAQ [PLCG1_Y210_T209N] the enrichment score was inactive: 0.544.
In the case of FSQNIYIQNRN [PKP2_Y631_YF], the enrichment score is reported as inactive: 1.44.
In the case of LHNLSYQLEAE [PKP2_Y616], the enrichment score is reported as inactive: 1.09.
For YSQNIYIQNRN [PKP2_Y631], the enrichment score was inactive: 1.39.
YSQNICIQNRN [PKP2_Y631_Y631C] was tested, and the enrichment score was inactive: 0.583.
ELPEKYSQNIY [PKP2_Y626] was tested, and the enrichment score was inactive: 0.516.
With SEPDLYCDPRG [PKP1_Y160] the enrichment score was inactive: 0.609.
GPGSGYTNIMR [PKLR_Y564_R559G] was tested, and the enrichment score was inactive: 0.908.
With ELPEKYSQNIF [PKP2_Y626_YF] the enrichment score was inactive: 0.943.
With FMRGMYFRMKD [PLA2G6_Y541_YF] the enrichment score was inactive: 0.69.
With RNLDTYQKRLR [PLA2G2D_Y126] the enrichment score was inactive: 0.57.
In the case of SIYKDYYRYNF [PLA2G2D_Y85], the enrichment score is reported as inactive: 1.49.
With SIFKDYFRFNF [PLA2G2D_Y85_YF] the enrichment score was inactive: 2.68.
For GIYKDYYRYNF [PLA2G2D_Y85_S80G], the enrichment score was inactive: 1.01.
With DASAVYLHDFQ [PLCG2_Y242] the enrichment score was inactive: 1.13.
RHFSSYSQMEN [PKP1_Y120_R116H] was tested, and the enrichment score was inactive: 0.91.
RRFSSYSQMEN [PKP1_Y120] was tested, and the enrichment score was inactive: 0.256.

These binders were tested against SHP2 N-SH2 domain T42A in the same assay as above. Settings: peptide library: pTyr-Var.
For FSQNICIQNRN [PKP2_Y631_Y631C_YF], the enrichment score was inactive: 0.779.
With YTHSDYQYSQR [PKP2_Y166] the enrichment score was inactive: 0.532.
SGDINYGQFAQ [PLCG1_Y210_T209N] was tested, and the enrichment score was inactive: 0.469.
For FSQNIYIQNRN [PKP2_Y631_YF], the enrichment score was inactive: 1.5.
For LHNLSYQLEAE [PKP2_Y616], the enrichment score was inactive: 0.944.
In the case of YSQNIYIQNRN [PKP2_Y631], the enrichment score is reported as active: 3.65.
In the case of YSQNICIQNRN [PKP2_Y631_Y631C], the enrichment score is reported as inactive: 0.683.
ELPEKYSQNIY [PKP2_Y626] was tested, and the enrichment score was inactive: 0.491.
With SEPDLYCDPRG [PKP1_Y160] the enrichment score was inactive: 0.599.
In the case of GPGSGYTNIMR [PKLR_Y564_R559G], the enrichment score is reported as inactive: 1.28.
With ELPEKYSQNIF [PKP2_Y626_YF] the enrichment score was inactive: 0.781.
In the case of FMRGMYFRMKD [PLA2G6_Y541_YF], the enrichment score is reported as inactive: 0.66.
In the case of RNLDTYQKRLR [PLA2G2D_Y126], the enrichment score is reported as inactive: 0.854.
In the case of SIYKDYYRYNF [PLA2G2D_Y85], the enrichment score is reported as inactive: 1.77.
SIFKDYFRFNF [PLA2G2D_Y85_YF] was tested, and the enrichment score was inactive: 2.41.
In the case of GIYKDYYRYNF [PLA2G2D_Y85_S80G], the enrichment score is reported as inactive: 1.01.
In the case of DASAVYLHDFQ [PLCG2_Y242], the enrichment score is reported as inactive: 1.07.
In the case of RHFSSYSQMEN [PKP1_Y120_R116H], the enrichment score is reported as inactive: 1.14.
In the case of RRFSSYSQMEN [PKP1_Y120], the enrichment score is reported as inactive: 0.247.

These binders were tested against SHP2 N-SH2 domain T52S in the same assay as above. Settings: peptide library: pTyr-Var.
FSQNICIQNRN [PKP2_Y631_Y631C_YF] was tested, and the enrichment score was inactive: 0.672.
For YTHSDYQYSQR [PKP2_Y166], the enrichment score was inactive: 0.534.
SGDINYGQFAQ [PLCG1_Y210_T209N] was tested, and the enrichment score was inactive: 0.573.
FSQNIYIQNRN [PKP2_Y631_YF] was tested, and the enrichment score was inactive: 1.84.
For LHNLSYQLEAE [PKP2_Y616], the enrichment score was inactive: 1.09.
With YSQNIYIQNRN [PKP2_Y631] the enrichment score was inactive: 1.43.
With YSQNICIQNRN [PKP2_Y631_Y631C] the enrichment score was inactive: 0.502.
For ELPEKYSQNIY [PKP2_Y626], the enrichment score was inactive: 0.606.
SEPDLYCDPRG [PKP1_Y160] was tested, and the enrichment score was inactive: 0.617.
With GPGSGYTNIMR [PKLR_Y564_R559G] the enrichment score was inactive: 0.907.
In the case of ELPEKYSQNIF [PKP2_Y626_YF], the enrichment score is reported as inactive: 0.716.
For FMRGMYFRMKD [PLA2G6_Y541_YF], the enrichment score was inactive: 0.864.
RNLDTYQKRLR [PLA2G2D_Y126] was tested, and the enrichment score was inactive: 0.954.
In the case of SIYKDYYRYNF [PLA2G2D_Y85], the enrichment score is reported as inactive: 1.6.
SIFKDYFRFNF [PLA2G2D_Y85_YF] was tested, and the enrichment score was inactive: 2.63.
GIYKDYYRYNF [PLA2G2D_Y85_S80G] was tested, and the enrichment score was inactive: 1.4.
In the case of DASAVYLHDFQ [PLCG2_Y242], the enrichment score is reported as inactive: 1.15.
For RHFSSYSQMEN [PKP1_Y120_R116H], the enrichment score was inactive: 0.851.
With RRFSSYSQMEN [PKP1_Y120] the enrichment score was inactive: 0.352.

What follows are binders tested against SHP2 N-SH2 domain wild-type in the same assay as above. Settings: peptide library: pTyr-Var.
In the case of FSQNICIQNRN [PKP2_Y631_Y631C_YF], the enrichment score is reported as inactive: 0.919.
In the case of YTHSDYQYSQR [PKP2_Y166], the enrichment score is reported as inactive: 0.542.
For SGDINYGQFAQ [PLCG1_Y210_T209N], the enrichment score was inactive: 0.748.
For FSQNIYIQNRN [PKP2_Y631_YF], the enrichment score was inactive: 1.93.
LHNLSYQLEAE [PKP2_Y616] was tested, and the enrichment score was inactive: 1.08.
In the case of YSQNIYIQNRN [PKP2_Y631], the enrichment score is reported as inactive: 1.23.
YSQNICIQNRN [PKP2_Y631_Y631C] was tested, and the enrichment score was inactive: 0.661.
With ELPEKYSQNIY [PKP2_Y626] the enrichment score was inactive: 0.783.
In the case of SEPDLYCDPRG [PKP1_Y160], the enrichment score is reported as inactive: 0.829.
With GPGSGYTNIMR [PKLR_Y564_R559G] the enrichment score was inactive: 0.918.
ELPEKYSQNIF [PKP2_Y626_YF] was tested, and the enrichment score was inactive: 0.742.
FMRGMYFRMKD [PLA2G6_Y541_YF] was tested, and the enrichment score was inactive: 0.731.
In the case of RNLDTYQKRLR [PLA2G2D_Y126], the enrichment score is reported as inactive: 0.57.
With SIYKDYYRYNF [PLA2G2D_Y85] the enrichment score was inactive: 1.55.
For SIFKDYFRFNF [PLA2G2D_Y85_YF], the enrichment score was inactive: 2.77.
For GIYKDYYRYNF [PLA2G2D_Y85_S80G], the enrichment score was inactive: 1.52.
For DASAVYLHDFQ [PLCG2_Y242], the enrichment score was inactive: 1.42.
For RHFSSYSQMEN [PKP1_Y120_R116H], the enrichment score was inactive: 1.11.
With RRFSSYSQMEN [PKP1_Y120] the enrichment score was inactive: 0.345.

Source: the supplement of paper PMC10369915
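Note: displayed peptides selected on beads carrying the immobilized SH2 domain, with library peptides lacking any tyrosine serving as negative controls.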
